# Results published in PubChem BioAssay AID588463 (National Center for Advancing Translational Sciences (NCATS), 2011).
# Out of some 1,200 compounds screened, about 15 (1%) were called active. Inconclusive means that the source gave no clear call. Such entries were picked first, then a sample of the others. Calls follow the shape of the dose curve; as a rule, active = well fitted activation curve with a large enough effect; inconclusive = small, poorly fitted or top-dose-only effect; inactive = flat fitted curve, though single readings scatter. Potencies of inconclusive entries are doubtful fits and often do not repeat.
# Target: Beta-2 adrenergic receptor (Homo sapiens) (UniProt P07550)
# Chain of UniProt P07550 (P07550 whole entry, looked up): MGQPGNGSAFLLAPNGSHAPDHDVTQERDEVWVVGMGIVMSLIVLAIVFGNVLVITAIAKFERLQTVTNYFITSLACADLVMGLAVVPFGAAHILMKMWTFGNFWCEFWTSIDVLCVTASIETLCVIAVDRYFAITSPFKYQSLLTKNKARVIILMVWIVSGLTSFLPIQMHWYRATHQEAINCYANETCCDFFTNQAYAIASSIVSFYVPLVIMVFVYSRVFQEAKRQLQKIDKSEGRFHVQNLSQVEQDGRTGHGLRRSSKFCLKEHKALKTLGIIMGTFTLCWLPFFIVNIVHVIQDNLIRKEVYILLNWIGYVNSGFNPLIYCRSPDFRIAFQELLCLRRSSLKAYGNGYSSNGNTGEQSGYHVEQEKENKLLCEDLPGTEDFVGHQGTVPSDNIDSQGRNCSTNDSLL
# Test: qHTS assay of beta-arrestin-biased ligands of beta2-adrenergic receptor: Hit Validation;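 as to activation: plate controls were DMSO for no effect and maximal isoproterenol or metaproterenol response for full effect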
# Conditions: cell-based beta-arrestin recruitment to beta2AR; Potency: activation; series mostly up to 46.1 µM; activation: at the top concentration
# Text: The concept of biased agonism is an emerging concept of molecular pharmacology which proposes that seven transmembrane receptors (7TMRs) or G protein-coupled receptors (GPCRs), exist in multiple signaling conformations and complexes and that ligands (either agonists or antagonists) can induce signaling biased responses for distinct signal transduction cascades.
# Furthermore, accumulating evidence over the last decade has drawn attention to a novel function of beta-arrestins as signal transducers that scaffold various signaling molecules upon activation of 7TMRs. […] This beta-arrestin-biased signaling presumably leads to distinct physiological outcomes from those by G protein activation.
# Additionally, the active receptor conformations which […] on this beta-arrestin signaling are likely different from those activating G protein signaling
# The goal of this screening project will be to discover and optimize novel beta-arrestin-biased ligands for beta2-AR signaling. A luminescent cell-based assay for beta2-AR-mediated agonism, known as the Tango assay, has been validated in which ligand binding of a recombinant beta2-AR and subsequent recruitment of a recombinant beta-arrestin lead to the release of the transcriptional activator tTA, which upregulates transcription of a tTA-responsive luciferase gene.
# NIH Molecular Libraries Probe Production Network [MLPCN]
# NIH Chemical Genomics Center [NCGC]
# PI: Bryan Roth (UNC) and Bob Lefkowitz (Duke)
# NCGC Assay Protocol Summary:
# Tango cells were dispensed into white, solid, tissue-culture-treated 1536-well plates at 1500 cells/well in DMEM, containing 1% fetal bovine serum (FBS). Then, 23 nL of compounds or DMSO were delivered to each well using a pin tool. Plates were incubated at 37 degrees C, 5% CO2 for 18 hr. Then 2.5 uL luminescent substrate mix (in-house prepared: 150 mM Tris-Cl, pH 7.6, 3 mM MgCl2, 1% Triton X-100, 5 mM DTT, 0.5 mM CoA, 0.15 mM ATP, 0.44 mM D-luciferin, final concentrations) was added to each well. Plates were then incubated for 15 minutes at room temperature, and subsequently measured on a ViewLux plate reader for luminescent signal using a clear filter with a 10 second exposure and 2x binning. The %Activity was determined from the corrected luminescence values.
# Concentration-response curves were fitted to the signals arising from the resulting luminescence. The concentration-effect curves were then classified based on curve quality (r2), response magnitude and degree of measured activity, and compounds were subsequently categorized based on their curve class.
# Keywords: biased agonism, beta2-AR, beta-arrestin, GPCR, 7TMR, Tango, luminescence, MLSMR, MLPCN, NIH Roadmap, qHTS, NCGC
# Potency is read from the fitted curve at half-maximal effect; tags tell the direction and shape of the fitted curve.
SMILES,activation,Potency
CNc1cc(C)nc(-n2nc(C)cc2C)n1,inactive: 0.533%,
Cc1ccc(-c2csc3nc(SCC(N)=O)n(Cc4ccccc4)c(=O)c23)cc1,,"inconclusive: 29.1 µM [activator, single point]"
COc1cccc(/C=N/Nc2ncc(C(F)(F)F)cc2Cl)c1O,,"inconclusive: 25.9 µM [activator, single point]"
CCCNC(=O)c1ccccc1NC(=O)C1COc2ccccc2O1 (stereo not given),,"inconclusive: 6.51 µM [activator, partial curve, poor fit]"
Cc1ccccc1Nc1nc(N)nc(COC(=O)c2cccc(S(=O)(=O)NCc3ccccc3)c2)n1,,"inconclusive: 32.6 µM [activator, partial curve, poor fit]"
COCCN(C(=O)COC(=O)c1c(-c2ccccc2)noc1C)c1c(N)n(Cc2ccccc2)c(=O)[nH]c1=O,,"inconclusive: 23.1 µM [activator, single point]"
COc1ccc(C2CC(c3ccccc3)=NN2C(=O)COC(=O)c2cccc(N)c2)cc1 (stereo not given),inactive: 7.98%,
O=C(NCC1CCCO1)C(c1cccs1)N(Cc1cccs1)C(=O)c1ccc(-c2ccccc2)[nH]1 (stereo not given),,"inconclusive: 16.4 µM [activator, partial curve, poor fit]"
CCOc1ccc(C(C)=O)cc1COC(=O)c1ccc2c(c1)NC(=O)CS2,,"inconclusive: 25.9 µM [activator, partial curve, poor fit]"
COc1ccc(C[C@H]2CN3C(=NC[C@@H]3Cc3ccc(O)cc3)N2C[C@H](C)NC(=O)CCC2CCCCC2)cc1,,"inconclusive: 7.31 µM [activator, partial curve]"
C=C(C)c1cccc(C(C)(C)NC(=O)NC2CCN(Cc3ccccc3)CC2)c1,,"inconclusive: 16.4 µM [activator, single point]"
N#CC1=C(N)N2C(=C(C#N)C13CCN(Cc1ccccc1)CC3)Nc1ccccc12,,"inconclusive: 20.6 µM [activator, single point]"
O=C(CSc1cccc[n+]1[O-])c1cc2ccccc2o1,inactive: -1.76%,
CCCc1c(-c2ccc(O)cc2)nn(-c2ccc(O)cc2)c1-c1ccc(O)cc1,,"inconclusive: 32.6 µM [activator, partial curve, poor fit]"
O=C(NCC(c1ccco1)N1CCCC1)c1cn(Cc2ccccc2)nc1-c1ccccc1 (stereo not given),,"inconclusive: 14.6 µM [activator, partial curve, poor fit]"
COC(=O)c1cc2sc(Cl)cc2n1CC(=O)Nc1ccc(OC)c(OC)c1OC,,"inconclusive: 6.51 µM [activator, partial curve]"
Oc1c(CN2CCCCC2)cc(COCc2ccccc2)c2cccnc12,,"inconclusive: 8.2 µM [activator, partial curve]"
COc1ccc(S(=O)(=O)N2CCOCC2)cc1NC(=O)Cc1ccsc1,,"inconclusive: 25.9 µM [activator, single point]"
O=C1NC(=NCc2ccccc2)S/C1=C/c1ccc(O)cc1,,"inconclusive: 23.1 µM [activator, partial curve, poor fit]"
COc1cc(CNCc2ccccc2)c(Br)cc1OC1CCCC1,,"inconclusive: 32.6 µM [activator, single point]"
CCC1(C)Cc2ccccc2C(=S)N1 (stereo not given),inactive: -3.36%,
Cc1cccc(C)c1Nc1c(-c2ccccn2)nc2ccccn12,,"inconclusive: 9.2 µM [activator, partial curve]"

SMILES,activation,Potency
CC1=NN(C(N)=S)C(=O)C1N=Nc1ccccc1 (stereo not given),,"inconclusive: 18.4 µM [activator, partial curve, poor fit]"
COc1cc(CN2CCCCC2C(=O)Nc2ccc(Oc3ccccc3)nc2)ccc1O (stereo not given),inactive: 6.3%,
CCCOCc1ccc(O)c2ncccc12,,"inconclusive: 23.1 µM [activator, single point]"
COc1ccccc1NC(=S)N/N=C1\CC(C)(C)Oc2ccc(O)cc21,inactive: -1.77%,
Cc1ccccc1OCC(=O)N/N=C/c1sc(=O)n(Cc2cccc(C(=O)O)c2)c1Cl,inactive: -1.41%,
COc1ccccc1-n1c2nc3ccccc3nc2c2c(=O)n(-c3cc(C)cc(C)c3)cnc21,inactive: -3.64%,
CC(=O)O[C@H]1C2OC(=O)C(C)=C2[C@@H]2OC(=O)[C@]3(CCC4OC41C)OC23 (stereo not given in full),inactive: -1.78%,
O=C(/C=C/c1ccc2c(c1)OCO2)Nc1c(C(=O)O)[nH]c2ccccc12,,"inconclusive: 16.4 µM [activator, partial curve, poor fit]"
N#Cc1ccc(N2Cc3ccccc3C2=NC(=O)c2cccnc2Cl)cc1,,"inconclusive: 18.4 µM [activator, single point]"
O=C(NCCOc1cccnc1)C1CCC(=O)N(Cc2ccccc2F)C1 (stereo not given),inactive: -3.24%,
Cc1ccn2c(Nc3ccccc3C)c(-c3ccccn3)nc2c1,,"inconclusive: 20.6 µM [activator, partial curve, poor fit]"
O=C(Nc1ccc(Nc2ccccc2)cc1)c1cc([N+](=O)[O-])ccc1Cl,,"inconclusive: 18.4 µM [activator, partial curve, poor fit]"
Cc1cc(/C=N/NC(N)=S)c(C)n1-c1ccc(Cl)cc1,,"inconclusive: 32.6 µM [activator, partial curve, poor fit]"
Oc1c(CN2CCc3ccccc3C2)cc(Cl)c2cccnc12,,"inconclusive: 29.1 µM [activator, single point]"
NC(=S)n1[nH]c(-c2ccc([N+](=O)[O-])cc2)c(N=Nc2cccc([N+](=O)[O-])c2)c1=O,inactive: -5.18%,
COc1ccc(N(C(=O)CCl)C(C)(C(=O)Nc2c(C)cccc2C)c2ccccn2)cc1 (stereo not given),inactive: 0.0836%,
CC1=C(C)/C(=N\OS(=O)(=O)c2ccc(C)cc2)C=CC1=O,,"inconclusive: 4.61 µM [activator, single point]"
N#C/C(=C\c1ccncc1)c1nc2ccccc2o1,,"inconclusive: 29.1 µM [activator, partial curve, poor fit]"
CC1(C)C(c2cccs2)=[N+]([O-])C2(CCCCC/C2=N\NC(N)=S)N1O (stereo not given),,"inconclusive: 14.6 µM [activator, single point]"
COc1cc(CNc2ccc(O)cc2)cc(Br)c1OCc1ccccc1,,"inconclusive: 4.11 µM [activator, full curve]"
CC(=O)NC(c1ccccc1)c1cc(Cl)c2cccnc2c1O (stereo not given),,"inconclusive: 29.1 µM [activator, single point]"
CCOc1ccc(N(CC(=O)Nc2cccnc2)S(=O)(=O)c2ccc(C)cc2)cc1,inactive: -4%,

SMILES,activation,Potency
C/C=C(\C)C(=O)NCCN1C2=NC[C@H](Cc3ccccc3)N2C[C@H]1Cc1ccc(O)cc1,,"inconclusive: 14.6 µM [activator, partial curve]"
C/C(CCC1CC(C)(C)OC1=O)=N\NC(N)=S (stereo not given),inactive: -4.39%,
COc1ccc(C2=NN(C(=O)/C=C/c3ccccc3)C(c3ccccc3)C2)c(OC(C)=O)c1 (stereo not given),inactive: 1.88%,
O=C(N/N=C/c1ccccc1OC(=O)c1ccc2c(c1)OCO2)c1cccc(F)c1,,"inconclusive: 14.6 µM [activator, single point]"
Clc1ccc(/C=N/Nc2ncnc3ccccc23)cc1Cl,,"inconclusive: 3.66 µM [activator, single point]"
COc1ccc(C(NC(=O)C(C)C)c2ccc3cccnc3c2O)cc1 (stereo not given),,"inconclusive: 3.26 µM [activator, full curve]"
CCC(=O)N1CCC2(CC1)Oc1ccc(Cl)cc1C(=O)C21CC(c2ccccc2)=NO1 (stereo not given),,active: 20.6 µM
CC(C)N(Cc1cc2ccccc2[nH]c1=O)C(=O)C1CCCCC1,,"inconclusive: 16.4 µM [activator, single point]"
Cc1ccc(S(=O)(=O)N2CCN(C(C)C(=O)NCC(C)c3ccccc3)CC2)cc1 (stereo not given),,"inconclusive: 16.4 µM [activator, partial curve, poor fit]"
Cc1[nH]c2ccccc2c1C(=O)C(C)OC(=O)c1ccc(NC(=O)CC#N)cc1 (stereo not given),,"inconclusive: 14.6 µM [activator, partial curve]"
COc1c(-c2ccc(O)c(O)c2)oc2cc(O)cc(O)c2c1=O,,"inconclusive: 23.1 µM [activator, partial curve, poor fit]"
Oc1c(CN2CCN(c3ccccn3)CC2)cc(Cl)c2cccnc12,,"inconclusive: 29.1 µM [activator, single point]"
Cc1ccc(Nc2c(-c3ccccn3)nc3cccc(C)n23)cc1,,"inconclusive: 23.1 µM [activator, single point]"
Cc1ccc(C)c(NC(=S)NNc2ccc(F)cc2F)c1,inactive: -5.48%,
CCOC(=O)C1=C(C)N=c2s/c(=C3/C(=O)Nc4ccccc43)c(=O)n2C1c1ccc(C)cc1 (stereo not given),inactive: -2.56%,
COc1ccc(/C=N/OC/C(O)=C(\C#N)c2nc3ccccc3[nH]2)cc1OC,inactive: -2.21%,
CCC(=O)NC(c1ccccc1OC)c1ccc2cccnc2c1O (stereo not given),,"inconclusive: 18.4 µM [activator, partial curve]"
CC(C)C(=O)NC(c1ccco1)c1ccc2cccnc2c1O (stereo not given),,"inconclusive: 23.1 µM [activator, single point]"
COc1cccc(C2CC3(CC(C)(C)NC(=S)N3)Oc3cc(O)ccc32)c1 (stereo not given),,"inconclusive: 20.6 µM [activator, partial curve, poor fit]"
c1ccc(SCc2nc(-c3cccnc3)no2)cc1,,"inconclusive: 29.1 µM [activator, single point]"
COc1ccc(C)cc1-n1c(SCC(=O)NC2CC2)nc2ccccc2c1=O,,"inconclusive: 23.1 µM [activator, partial curve, poor fit]"
